Source: PubChem BioAssay (NCI)
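All cell lines were grown in 96-well plates and treated with compound for 48 hours. GI50 is the concentration that inhibits growth by half. TGI marks complete inhibition of growth.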

Tested on: NCI-H322M lung
Experiment: NCI anticancer screen, dose series, 48 h

`COc1cc2cc(Oc3ccc(NC(=O)c4cccc(C(F)(F)F)c4)cc3)c(C)nc2cc1OCCN1CCCCC1` was tested, and the GI50 was 25.2 µM and the TGI was 72.2 µM.
